The whole screen tested about 48,000 compounds, of which about 450 (0.94%) were called active. Roughly 19% stayed inconclusive and do not appear here. Calls follow the shape of the dose curve; as a rule, active = well fitted inhibition curve with a large enough effect; inconclusive = small, poorly fitted or top-dose-only effect; inactive = no such curve, though single readings can be large or run the other way. Some of the results follow.

This assay in a line: Primary qHTS for Identification of Small Molecule Inhibitors of Huntingtin Promoter Activity. Also: nearly all actives have a fitted effect of over 50% in size. The conditions noted are these: HEK293 HTT promoter firefly luciferase reporter (activity 0% = vehicle and -100% = no light), 24 h; series mostly up to 57.5 µM; activity change, negative = inhibition: at the top concentration. The method, boiled down: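 Firefly luciferase readout (Dual-Glo, 10 min RT) after 24 h, 37 °C compound exposure (final up to 57.5 uM) of HEK293 reporter cells cultured 24 h beforehand; PTC124 at 50 uM final as control inhibitor; activity scaled vehicle 0%, zero RLU -100%.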
For orientation: Quantitative high-throughput screening tests each substance at several concentrations.
For the compound `Cc1cc2nc3c(=O)[nH]c(=O)nc-3n(CC(O)C(O)C(O)CO)c2cc1C` (stereo not drawn), the “activity change, negative = inhibition” value is inactive: 1.27%.
The result for `Cc1cc(C)cc(NC(=O)Cn2nnc(-c3nc(-c4ccncc4)no3)c2N)c1` reads inactive: -13.1%; that for `Cc1cc2c(cc3c(SCc4nc(-c5ccccc5)oc4C)nnc(C)n32)o1`, inactive: -14.9%.
Next, `COc1ccc(N2CCN(C(=O)c3cccc(NC(=O)c4nsc5ccccc45)c3)CC2)cc1`: inactive: -29.9%.
Next, `CCOC(=O)c1ccc(NC(=O)Nc2cc3c(cc2N2CCCC2)n(C)c(=O)n3C)cc1`: inactive: -3.2%; `Cc1cc(CC(=O)O)n(C)c1C(=O)c1ccc(Cl)cc1`: inactive: 5.44%; `Nc1c(C(=O)Nc2ccc(F)c(F)c2)sc2nc(-c3ccncc3)ccc12`: inactive: 14.4%.
For `COC(=O)c1cc(NC(=O)c2nn(C)c3c2COc2ccccc2-3)cc(C(=O)OC)c1`, the “activity change, negative = inhibition” value is inactive: -12.1%.
The result for `COc1cccc(CNC(=O)c2cc(C)nc3c2c(C)nn3-c2cccc(F)c2)c1` reads inactive: -19.8%; that for `COc1ccccc1NC(=O)C1=C(C)Nc2nc(SCc3ccccc3F)nn2C1c1cccs1` (stereo not drawn), inactive: -20%.
The result for `O=C(COCc1cc(-c2ccc3c(c2)OCO3)on1)N1CCN(c2ccccc2)CC1` reads inactive: -30.5%; that for `Cc1ccc(S(=O)(=O)NCCc2cn3ccsc3n2)cc1`, inactive: 0.0146%.
The result for `CCC(CC)C(=O)Nc1nc2c(s1)CC(C)CC2` (stereo not drawn) reads inactive: -8.71%.
For the compound `COc1ccc(-n2nnnc2C2CCN(S(=O)(=O)c3ccc(C(C)(C)C)cc3)CC2)cc1`, the “activity change, negative = inhibition” value is inactive: -7.94%.
The result for `COc1ccc(NC(=O)CCc2nnc3n(CC(C)C)c(=O)c4ccccc4n23)cc1` reads inactive: 0.93%.
The result for `CCc1ccccc1NC(=O)C1CCCN(c2ncnc3onc(C)c23)C1` (stereo not drawn) reads inactive: -29.1%; that for `CC12CCC(CC1)C(C)(C)O2`, inactive: 13%; that for `COc1ccc(CNC(=O)c2ccc(CS(=O)Cc3ccccc3Cl)o2)cc1` (stereo not drawn), inactive: -3.32%.
Turning to `Cc1ccc(-n2nc(C(=O)N3CCN(c4cc(Cl)ccc4C)CC3)c3c4ccccc4n(C)c3c2=O)cc1`, the “activity change, negative = inhibition” value is inactive: -5.54%.
The result for `O=C(c1ccc(CSc2nc3ccncc3n2Cc2ccccc2)cc1)N1CCCCCC1` reads inactive: -19.2%; that for `Cc1ccc(NC(=O)Cn2ccn(-c3ccc(F)c(F)c3)c(=O)c2=O)cc1C`, inactive: -19.1%.
The result for `C=Cc1ccc(CSc2nc(-c3ccc(C)cc3)nc3c2Cc2c(CO)cnc(C)c2O3)cc1` reads inactive: -11.7%; that for `O=C(Nc1cccc(C(=O)OCc2cc(=O)n3c4c(sc3n2)CCCC4)c1)c1ccccc1`, inactive: -8.14%.
Turning to `Cc1cccc(NC(=O)C(NS(=O)(=O)c2ccc3c(c2)oc(=O)n3C)C(C)C)c1` (stereo not drawn), the “activity change, negative = inhibition” value was inactive: -8.71%.
For `O=c1c(S(=O)(=O)c2cccc(Cl)c2)cn(Cc2ccccc2)c2cc(N3CCOCC3)c(F)cc12`, the “activity change, negative = inhibition” value is inactive: -7.63%.
Next, `O=C1NC(=O)C(=Cc2ccc(-c3ccc(F)cc3)o2)S1`: inactive: -17.8%.
Next, `CCOc1ccc(S(=O)(=O)Nc2nc3ccccc3nc2Nc2ccc(OC)cc2)cc1`: inactive: -1.9%; `CCCNC(=O)CCSc1nc(-c2ccc3c(c2)OCO3)cc(C(F)(F)F)n1`: inactive: -8.94%; `Cc1cc(C)c2nc(N(Cc3cccnc3)C(=O)CCOc3ccccc3)sc2c1`: inactive: -0.61%.
Next, `COc1cc(CCC(=O)NCc2ccc3c(c2)CCN3C(=O)c2ccc(F)cc2)cc(OC)c1OC`: inactive: -2.48%; `CCOC(=O)c1c(SCC(=O)Nc2cc(Cl)cc(Cl)c2)nc(=O)[nH]c1C`: inactive: 2.56%; `COc1ccc(-c2nc3c(c(SCC(=O)N(C)c4ccccc4)n2)Cc2cc(C)ccc2O3)cc1`: inactive: -13.4%.
Turning to `CCCCNC(=O)C1CCC(CNS(=O)(=O)c2ccc(NC(C)=O)cc2)CC1` (stereo not drawn), the “activity change, negative = inhibition” value is inactive: 20.6%.
Next, `COc1ccc2ncc3c(-c4ccc(C)c(C)c4)nn(CC(=O)NC4CCCC4)c3c2c1`: inactive: -15.3%.
The result for `Cc1ccc2nc(NCc3ccc(F)cc3)c3nncn3c2c1` reads inactive: -3.25%; that for `CCN(CC)c1ccc(NC(=O)Cn2nc(C)n3cccc3c2=O)c(C)c1`, inactive: -6.33%; that for `Cc1cccc(-n2ncc3c(N4CCN(c5ccccc5)CC4)ncnc32)c1`, inactive: -13.7%.
Next, `CCc1ccccc1NC(=O)CCc1c(C)nn(-c2ccc(N3CCOCC3)nn2)c1C`: inactive: -6.78%.
For the compound `CCc1nn2c(=O)cc(COC(=O)c3ccccc3NC(=O)C3CCCCC3)nc2s1`, the “activity change, negative = inhibition” value is inactive: -5.55%.
The result for `CC(=O)Nc1ncc([N+](=O)[O-])s1` reads inactive: 13.8%.
The result for `O=C(c1ccc(F)cc1)n1nc(-c2ccccc2)nc1NCc1ccc(F)cc1` reads inactive: 4.92%; that for `COc1ccc(Cn2c(=O)[nH]c3cc(C(=O)N4CCN(c5cc(Cl)ccc5C)CC4)ccc3c2=O)cc1`, inactive: -9.82%.
Next, `COc1ccccc1-c1noc(-c2ccc(NC(C)C)c([N+](=O)[O-])c2)n1`: inactive: 34.5%; `COc1ccc(-c2nn(-c3cccc(F)c3)c3c2cnc2cc(OC)c(OC)cc23)cc1`: inactive: -22.4%; `COc1ccc2[nH]cc(S(=O)(=O)c3ccc(C)c(C)c3)c(=O)c2c1`: inactive: -23.3%.
As to `O=C(CCCCn1c(=O)c2ccccc2n(CC(=O)Nc2cccc(F)c2)c1=O)NCCc1ccccc1`, the “activity change, negative = inhibition” value was inactive: -10.2%.
Next, `CCc1ccc(NC(=O)Cn2cc(S(=O)(=O)N3CCCC3)c(S(=O)(=O)N3CCCC3)c2)cc1`: inactive: -13.4%; `CC(C)NC(=O)CCN1C(=O)c2ccccc2Sc2ncccc21`: inactive: -1.46%.

For the origin of these results see PubChem BioAssay AID1508623 (National Center for Advancing Translational Sciences (NCATS), 2021).
